# Values joined by “and” are separate entries in the source; they are usually repeats but may differ in a detail not shown here. Identical values can stand only once. In all, about 2,900 compounds were measured (“IRF Lucia reporter activity, fold change vs agonist alone”: median about 0.9, highest 2% from about 2.8 on). Some of the results follow.
# Assays:
# RAW-Dual [1] = experiment: IRF Lucia reporter activity, fold change vs agonist alone; cytotoxicity flag (confluency mask): not cytotoxic; higher = enhanced IRF activity
# Summary of the method: (§1)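 RAW-Dual macrophages (50,000 cells/well in DMEM, 384-well plates) received 50 nL of library stock by pin tool, then a PRR agonist 1 h later, and were kept at 37 °C, 5% CO2. After 20 hours, supernatant was read for IRF by QuantiLuc luminescence and for NF-κB by QuantiBlue absorbance at 620 nm. Reporter activity is fold change over agonist-alone wells. Cytotoxic wells had IncuCyte confluency below 70% of agonist controls in both mask sets.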
# RAW-Dual [2] = experiment: IRF Lucia reporter activity, fold change vs agonist alone; higher = enhanced IRF activity; conditions: agonist: MPLA (TLR4) […]
# Summary of the method: as §1
# RAW-Dual [3] = experiment: IRF Lucia reporter activity, fold change vs agonist alone; cytotoxicity flag (confluency mask): cytotoxic (confluency <70% of control); higher = enhanced IRF activity
# Summary of the method: as §1
# [4] = agonist: 3'3'-cGAMP (STING) 10 ug/mL
# [5] = library stock concentration (final ~1000-fold dilution): 10 mM, cytotoxicity flag (confluency mask): not cytotoxic
# [6] = library stock concentration (final ~1000-fold dilution): 10 mM, cytotoxicity flag (confluency mask): cytotoxic (confluency <70% of control)
structure (smiles),measurement,setting,value
Cc1cccc(Nc2ccccc2C(=O)O)c1C (library stock concentration (final ~1000-fold dilution): 10 mM),IRF Lucia reporter activity,RAW-Dual [1]; [4],1.06
same,IRF Lucia reporter activity,RAW-Dual [1]; agonist: LPS (TLR4) 0.1 ug/mL,1.1
Cc1cccc(Nc2ccccc2C(=O)O)c1C,IRF Lucia reporter activity,RAW-Dual [2]; [5],1.1
O=C(Nc1cc(C(F)(F)F)ccc1N1CCN(Cc2ccccn2)CC1)c1ccc(-c2ccncc2)o1 (library stock concentration (final ~1000-fold dilution): 10 mM),IRF Lucia reporter activity,RAW-Dual [1]; [4],0.738
same,IRF Lucia reporter activity,RAW-Dual [1]; agonist: LPS (TLR4) 0.1 ug/mL,0.897
COc1c(O)cc2oc3cc(O)c(CC=C(C)C)c(O)c3c(=O)c2c1CC=C(C)C (library stock concentration (final ~1000-fold dilution): 10 mM),IRF Lucia reporter activity,RAW-Dual [1]; [4],0.728
same,IRF Lucia reporter activity,RAW-Dual [1]; agonist: LPS (TLR4) 0.1 ug/mL,0.723
CCCCc1nc(Cl)c(CO)n1Cc1ccc(-c2ccccc2-c2nnn[nH]2)cc1 (library stock concentration (final ~1000-fold dilution): 10 mM),IRF Lucia reporter activity,RAW-Dual [1]; [4],1.03 and 1.11
same,IRF Lucia reporter activity,RAW-Dual [1]; agonist: LPS (TLR4) 0.1 ug/mL,1.32 and 1.15
Cc1nc2n(c(=O)c1CCN1CCC(c3noc4cc(F)ccc34)CC1)CCCC2O (stereo not given) (library stock concentration (final ~1000-fold dilution): 2 mM),IRF Lucia reporter activity,RAW-Dual [1]; [4],0.941
same,IRF Lucia reporter activity,RAW-Dual [1]; agonist: LPS (TLR4) 0.1 ug/mL,1.03
Cc1nc2n(c(=O)c1CCN1CCC(c3noc4cc(F)ccc34)CC1)CCCC2O (stereo not given),IRF Lucia reporter activity,"RAW-Dual [2]; library stock concentration (final ~1000-fold dilution): 2 mM, cytotoxicity flag (confluency mask): not cytotoxic",1.21
C=CCn1c(=O)c2cnc(Nc3ccc(N4CCN(C)CC4)cc3)nc2n1-c1cccc(C(C)(C)O)n1,IRF Lucia reporter activity,RAW-Dual [2]; [6],0.0289
C=CCn1c(=O)c2cnc(Nc3ccc(N4CCN(C)CC4)cc3)nc2n1-c1cccc(C(C)(C)O)n1 (library stock concentration (final ~1000-fold dilution): 10 mM),IRF Lucia reporter activity,RAW-Dual [3]; [4],0.0179
same,IRF Lucia reporter activity,RAW-Dual [3]; agonist: LPS (TLR4) 0.1 ug/mL,0.0367
Cc1nc(-c2nc(-c3ccc(OC(F)(F)F)cc3)no2)nn1Cc1cccc(N2CCC(S(C)(=O)=O)CC2)c1 (library stock concentration (final ~1000-fold dilution): 10 mM),IRF Lucia reporter activity,RAW-Dual [1]; [4],0.936
same,IRF Lucia reporter activity,RAW-Dual [1]; agonist: LPS (TLR4) 0.1 ug/mL,0.78
c1cn2cc(-c3ccc4cn[nH]c4c3)nc(Nc3ccc(N4CCOCC4)cc3)c2n1,IRF Lucia reporter activity,RAW-Dual [2]; [5],0.88
c1cn2cc(-c3ccc4cn[nH]c4c3)nc(Nc3ccc(N4CCOCC4)cc3)c2n1 (library stock concentration (final ~1000-fold dilution): 10 mM),IRF Lucia reporter activity,RAW-Dual [1]; [4],0.179
same,IRF Lucia reporter activity,RAW-Dual [1]; agonist: LPS (TLR4) 0.1 ug/mL,0.714
CCC(NC(=O)C(C)NC)C(=O)N1CC(O)CC1Cc1c(-c2[nH]c3cc(F)ccc3c2CC2CC(O)CN2C(=O)C(CC)NC(=O)C(C)NC)[nH]c2cc(F)ccc12 (stereo not given),IRF Lucia reporter activity,RAW-Dual [2]; [5],0.519
CCC(NC(=O)C(C)NC)C(=O)N1CC(O)CC1Cc1c(-c2[nH]c3cc(F)ccc3c2CC2CC(O)CN2C(=O)C(CC)NC(=O)C(C)NC)[nH]c2cc(F)ccc12 (stereo not given) (library stock concentration (final ~1000-fold dilution): 10 mM),IRF Lucia reporter activity,RAW-Dual [1]; [4],0.626
same,IRF Lucia reporter activity,RAW-Dual [1]; agonist: LPS (TLR4) 0.1 ug/mL,0.632
NC1CCCN(c2c(Br)cnc3[nH]cc(NC(=O)C4CC4)c23)C1 (stereo not given) (library stock concentration (final ~1000-fold dilution): 10 mM),IRF Lucia reporter activity,RAW-Dual [3]; [4],0.494
same,IRF Lucia reporter activity,RAW-Dual [3]; agonist: LPS (TLR4) 0.1 ug/mL,0.742
CC(C)OC(=O)CCC/C=C\CC1C(O)CC(O)C1CCC(O)CCc1ccccc1 (stereo not given) (library stock concentration (final ~1000-fold dilution): 10 mM),IRF Lucia reporter activity,RAW-Dual [1]; [4],0.948
same,IRF Lucia reporter activity,RAW-Dual [1]; agonist: LPS (TLR4) 0.1 ug/mL,1.18
CC(C)OC(=O)CCC/C=C\CC1C(O)CC(O)C1CCC(O)CCc1ccccc1 (stereo not given),IRF Lucia reporter activity,RAW-Dual [2]; [5],1.57
O=C1CCC(N2C(=O)c3ccccc3C2=O)C(=O)N1 (stereo not given) (library stock concentration (final ~1000-fold dilution): 10 mM),IRF Lucia reporter activity,RAW-Dual [1]; [4],1
same,IRF Lucia reporter activity,RAW-Dual [1]; agonist: LPS (TLR4) 0.1 ug/mL,0.911
O=C1CCC(N2C(=O)c3ccccc3C2=O)C(=O)N1 (stereo not given),IRF Lucia reporter activity,RAW-Dual [2]; [5],1.08
O=C1C2C3CCC(C3)C2C(=O)N1CC1CCCCC1CN1CCN(c2nsc3ccccc23)CC1 (stereo not given),IRF Lucia reporter activity,RAW-Dual [2]; [5],1
O=C1C2C3CCC(C3)C2C(=O)N1CC1CCCCC1CN1CCN(c2nsc3ccccc23)CC1 (stereo not given) (library stock concentration (final ~1000-fold dilution): 10 mM),IRF Lucia reporter activity,RAW-Dual [1]; [4],1
same,IRF Lucia reporter activity,RAW-Dual [1]; agonist: LPS (TLR4) 0.1 ug/mL,0.938
CN(C)CCCn1cc(C2=C(c3c[nH]c4ccccc34)C(=O)NC2=O)c2ccccc21 (library stock concentration (final ~1000-fold dilution): 10 mM),IRF Lucia reporter activity,RAW-Dual [3]; [4],0.0231
same,IRF Lucia reporter activity,RAW-Dual [3]; agonist: LPS (TLR4) 0.1 ug/mL,0.0782
CN(C)CCCn1cc(C2=C(c3c[nH]c4ccccc34)C(=O)NC2=O)c2ccccc21,IRF Lucia reporter activity,RAW-Dual [2]; [6],0.0773
CNC(C)C(=O)NC(C(=O)N1CCCC1c1nc(C(=O)c2ccc(F)cc2)cs1)C1CCCCC1 (stereo not given),IRF Lucia reporter activity,RAW-Dual [2]; [6],0.383
CNC(C)C(=O)NC(C(=O)N1CCCC1c1nc(C(=O)c2ccc(F)cc2)cs1)C1CCCCC1 (stereo not given) (library stock concentration (final ~1000-fold dilution): 10 mM),IRF Lucia reporter activity,RAW-Dual [3]; [4],0.262
same,IRF Lucia reporter activity,RAW-Dual [3]; agonist: LPS (TLR4) 0.1 ug/mL,0.325
O=C(Nc1cccc(Nc2ncc(Br)c(NCCc3cnc[nH]3)n2)c1)N1CCCC1 (library stock concentration (final ~1000-fold dilution): 10 mM),IRF Lucia reporter activity,RAW-Dual [1]; [4],0.0254
same,IRF Lucia reporter activity,RAW-Dual [1]; agonist: LPS (TLR4) 0.1 ug/mL,0.0368
O=C(Nc1cccc(Nc2ncc(Br)c(NCCc3cnc[nH]3)n2)c1)N1CCCC1,IRF Lucia reporter activity,RAW-Dual [2]; [5],0.0526
Cc1cc(C)nc(SCC(=O)Nc2ncc(Cc3cccc4ccccc34)s2)n1 (library stock concentration (final ~1000-fold dilution): 10 mM),IRF Lucia reporter activity,RAW-Dual [1]; [4],0.189
same,IRF Lucia reporter activity,RAW-Dual [1]; agonist: LPS (TLR4) 0.1 ug/mL,0.972
